Data: PMC12136788
Some of the results follow.

T1: UNK ZnF1-3 (human, UniProt Q9C0B0 31-174)
T1 sequence: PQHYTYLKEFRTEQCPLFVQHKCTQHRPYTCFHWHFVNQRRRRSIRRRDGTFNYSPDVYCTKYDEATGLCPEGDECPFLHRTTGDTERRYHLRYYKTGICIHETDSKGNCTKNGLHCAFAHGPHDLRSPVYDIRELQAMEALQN

B1: chr5:32403282:32403283:-_ENSG00000056097_ENST00000265069|hu_mus|FALSE|FALSE (ssRNA)
RNA: GGGAGUUCUACAGUCCGACGAUCAGAUGUUUUCUUGGCAGCCAUAUUGGUAGGUAUCGCUGACACUUUAGUGUUGGAUGUACUAUUAAGAGACGAGUUUCCUGUAGUUGAAAGACCUUUCACUGAAGAAGUUGCAAUUGAUGACAACAGAGGAUUGAGCAUCA
B2: chr6:86333760:86333761:-_ENSG00000135316_ENST00000355238|hu_mus|hu_hu_hu_mus_True|18_98 (ssRNA)
RNA: GGGAGUUCUACAGUCCGACGAUCUUCCUCAAGAAUCUGUUCCUUGGUUUUACUCUUAGGAAUCGAGCCCACAAAAAGCCUAUUGUUGGCAACUGAGAUGCAGACACCAAUGUGCUUUCCAGAACGAAUUUCAUGAUUAUUAUACAACAGAGGAUUGAGCAUCA
B3: chr16:94690093:94690094:+_ENSMUSG00000040785_ENSMUST00000117648|mus_hu|mus_mus_mus_hu_True|8_78 (ssRNA)
RNA: GGGAGUUCUACAGUCCGACGAUCGGGCUGGGAUGACGGACACACAGCCUCGAUUCCGGUAAAAAAAAGUCUUAGUCGAUACUAAUUAAAAAGUGUUAAUGAUUUUUGAAAAUCAGAUUACAUCUAUUUGAAUCAUAAAGCAAACAACAGAGGAUUGAGCAUCA
B4: chr4:46174136:46174137:+_ENSMUSG00000028330_ENSMUST00000030014|mus_mus|FALSE|FALSE (ssRNA)
RNA: GGGAGUUCUACAGUCCGACGAUCAUCUUCCCAGCUCCAACGGAAUUGAAAAUUACUUAGAUGAUGAGAAAACCAAUUAAUAAACCUGUCAACACACGUGGUACUCAUCGUGUCCAGACGCAUGUACAGCAUCUCAGUCGCCUGCAACAGAGGAUUGAGCAUCA
B5: chr10:128108517:128108518:-_ENSMUSG00000049858_ENSMUST00000054764|mus_mus|FALSE|FALSE (ssRNA)
RNA: GGGAGUUCUACAGUCCGACGAUCAAACUUAUGCAAAUCAUCCAAGGACAGAGACAGUGACUGACCUCCAGGUGCCCCUACUACAUGUAAGCGAUAGGUGUGUGGGUCCAGGUUAGGUACAGGCAGAUGGUUACGGGUGAAGAACAACAGAGGAUUGAGCAUCA
B6: chr3:141904083:141904084:-_ENSMUSG00000028273_ENSMUST00000029941|mus_mus|FALSE|FALSE (ssRNA)
RNA: GGGAGUUCUACAGUCCGACGAUCGCUUCCAUUUUGCAAUGUGGUAUCACCCUUGCUGUUCAUUGAUCUCCCAGUUCAUUACUAUCUGCAUAUAAUAUAAAUUCACUAGACCAUAGAUUAGCAGCUUUCAGGACAGAUGCCUUGCAACAGAGGAUUGAGCAUCA
B7: chr2:235962676:235962677:+_ENSG00000130147_ENST00000392011|hu_hu|motif|central (ssRNA)
RNA: GGGAGUUCUACAGUCCGACGAUCCCCCCAUUCGUUAAAAAAGUGAUUUUAAAUUUAAAUUUAUACUUAACAAAUAGAAAGCGGUGUGAUUGGCAACGAGCUGCAGUAGGCAGUCCCUUCAGGCCUCUCCCUCGAUGGAGGAGGCAACAGAGGAUUGAGCAUCA
B8: chr4:133834700:133834701:-_ENSMUSG00000050890_ENSMUST00000105876|mus_hu|FALSE|FALSE (ssRNA)
RNA: GGGAGUUCUACAGUCCGACGAUCGUAAAAAUCUGUUCCACAUGCUGUGGAAAGGAAACACUUGUUUACACUGACAGGUUCUUCUGGGUUCUGCCCAGAGGCUGAACAAACUUUACUUAGACCAAAAUCAGCCACUUUGAGGGUCAACAGAGGAUUGAGCAUCA
B9: 48490846_48490966_941_3pUTR_ENSMUSG00000039347_ENSMUST00000040361|mouse|control|control (ssRNA)
RNA: GGGAGUUCUACAGUCCGACGAUCCACCUCCAGGAAUGUCACAUCUACAAGUGUCAGAGACUAAAUGGAUAUCAUUCACUUCAGAGCUGGAGGAGGCCUGUGACCCUGACCCAAUAUUUCAACACGGUGGAGACAGAGUUAAAACAACAGAGGAUUGAGCAUCA
B10: chr4:57314706:57314707:+_ENSG00000128050_ENST00000264221|hu_mus|hu_hu_hu_mus_True|1_88 (ssRNA)
RNA: GGGAGUUCUACAGUCCGACGAUCCAGAAUUUCAAAAAUAGCUUGUGUAGCAUGACUCAUGAUGUCCACUUCAGUCUGCCCUAUAACAAGGCCAGCAAAACAGAAUUUUGCAGCAAUGAGUUGCUCCUCAGACCACUGUGGGUCCAACAGAGGAUUGAGCAUCA
B11: 70762012_70763264_1072_3pUTR_ENSG00000145734_ENST00000358731|human|control|control (ssRNA)
RNA: GGGAGUUCUACAGUCCGACGAUCGUAGUUGUAGAACCGCGCUCAAAUAUGGGGUCAUUUUCUUCAACAACACAAGGGCCUUUUGUUCUUAAAACUUCUACAGUUAAACUUUCUUCAUCCAAAAUAAUGGAACCAUCUUCUGCCCAACAGAGGAUUGAGCAUCA
B12: chr12:48362563:48362564:+_ENSG00000134291_ENST00000256686|hu_hu|hu_hu_hu_mus_False|58_68 (ssRNA)
RNA: GGGAGUUCUACAGUCCGACGAUCUCCGUCAAGCCCUUCGAUAGACCCUUGCGGGGGAAACUGUAAUAAUUCUAACUUUCUAAAAAAAAGAAACGCCAAAAACUUUCCAAAAAGCGGGGGUGGGGUGAGGCGGGAGGGGGAGGUCAACAGAGGAUUGAGCAUCA
B13: 13613202_13613322_368_3pUTR_ENSMUSG00000042742_ENSMUST00000045235|mouse|control|control (ssRNA)
RNA: GGGAGUUCUACAGUCCGACGAUCUACAACACCAUUCAAUGCGACCUUCACCCUCACAAGUUUUUGCCCAGUGAUUAUCUGCCAGAUUUUUCAUUGCAACAGCAUAUUCGCAAAGUGUUUCCGCAUCUUCACAGUGUUCUCGCCCAACAGAGGAUUGAGCAUCA
B14: chrX:71549762:71549763:+_ENSMUSG00000019087_ENSMUST00000019231|mus_mus|mus_mus_mus_hu_False|58_98 (ssRNA)
RNA: GGGAGUUCUACAGUCCGACGAUCAAACCCGUGUACUCACUCUUAACAGCACAACAUCACCAGAAAACGAUAACGACAGCUAAGCUGGACAGACAGUUAAGUAGUACUUCCACACUCCCAAACUCAGGGAGCCCUAUAACCUUACAACAGAGGAUUGAGCAUCA
B15: 11925198_11928534_1590_CDS_ENSG00000134324_ENST00000256720|human|control|control (ssRNA)
RNA: GGGAGUUCUACAGUCCGACGAUCUGCUGUUGUCCAGUUAUAAUAUUUACUCCCAAUCUUUACCACGAGAUUGGGGUCAUCGAUAAUAGCGGGGUUGUCCACAAACUGUUGAUAUGACACAGCUUGCUCCAGGAAUGCAUCUUUCAACAGAGGAUUGAGCAUCA
B16: 46956734_46986804_428_5pUTR_ENSG00000141627_ENST00000269445|human|control|control (ssRNA)
RNA: GGGAGUUCUACAGUCCGACGAUCAUCGCCGAUUCUGCUGCUAUUCGAUCCCAUCUUCUAGCUUAAGCAGAUAAUUUGUCCUUAAACCUGCAUUUCCAAAAGACAACCUGUCUCAGCCGGCUGGGGGAUCUGCUCCAGCUCCACCAACAGAGGAUUGAGCAUCA
B17: 205581677_205581797_5572_3pUTR_ENSG00000158711_ENST00000357992|human|control|control (ssRNA)
RNA: GGGAGUUCUACAGUCCGACGAUCUGUUCAAAAAGGCUGGACACUCCUUUUCUGAACCACUGCUUCAGAGGUAUUGAGAAGUGGUACUGAGUGGCUCUAAAUGUGCUUACAUUCACCAAAAACAUAAAAGGACACCUUUAAGAACAACAGAGGAUUGAGCAUCA
B18: chr4:17845017:17845018:+_ENSG00000109805_ENST00000514176|hu_mus|hu_hu_hu_mus_False|8_68 (ssRNA)
RNA: GGGAGUUCUACAGUCCGACGAUCGCUCUCUUAACUUGUAUCUUCAUUAAGGAACUCUGCAAGGUUAGUUUACUUUUUCUGUAGCGCAGCUGUUUUGGCUCGUCUGGGUAAUCUCAUCUUCAUUUCUAUUCUGGUUCCAUGAUCCAACAGAGGAUUGAGCAUCA
B19: chr4:76721835:76721836:+_ENSG00000138768_ENST00000264904|hu_mus|hu_hu_hu_mus_True|48_68 (ssRNA)
RNA: GGGAGUUCUACAGUCCGACGAUCGUUUGGCUGGGGUUUCUGAGACGCUCUGGAAUAUAACUCAUGUUGCUAAUAAAAUCCUAGUUUUCUAUGAAAUUUCUCUUUGCCAAUCCUCUUCUCUAUUAGUUGCUUUAGUUUCUCUUUCAACAGAGGAUUGAGCAUCA
B20: chr5:77764768:77764769:+_ENSMUSG00000029250_ENSMUST00000031167|mus_hu|motif|central (ssRNA)
RNA: GGGAGUUCUACAGUCCGACGAUCGACACCAAGGAUCAUUGAGGGAUGAAUCUCACAGUGUGUAUAUGUGGAACAAUAAGCGGCUUCUUUCUCCUGUAAAUCAUCUGGAGUCAUUGCAAGCAUCACUGUUUCUUCUUCCAGGGUCAACAGAGGAUUGAGCAUCA
B21: chr10:59412704:59412705:-_ENSMUSG00000020108_ENSMUST00000020308|mus_mus|FALSE|FALSE (ssRNA)
RNA: GGGAGUUCUACAGUCCGACGAUCCUGGCUGCAGCUCCCAGGUGUAAUUUUGUUUCAAGUGUCGAAGAUCCCGAAUGAUCCUAACACCCACCCCAUUCCUACUCUUACAUUCAUGCAGUCUGUAAGAUAGCUGCCUCGAACAGGCAACAGAGGAUUGAGCAUCA
B22: 48613876_48613996_75_5pUTR_ENSMUSG00000020372_ENSMUST00000020640|mouse|control|control (ssRNA)
RNA: GGGAGUUCUACAGUCCGACGAUCGGGUCCCGCGAAGGGUCAUCUGCUCGGUCAUGGCUGCAGUUGAUGCGAGGGUCGCCGCAGCGACAAGGAUGGCACCGGAUAGCUCAGAGAGCCAAGCACCACAGCGGCUGCCACCACGACCAACAGAGGAUUGAGCAUCA

biological target: T1, UNK ZnF1-3; experiment: nsRBNS (natural sequence RNA bind-n-seq); RBNS binding buffer (assumed for nsRBNS): 25 mM Tris pH 7.5, 150 mM KCl, 3 mM MgCl2, 0.01% Triton X-100, 500 ug/ml BSA, 20 U/ml SUPERase-In, 4 C; UNK is unkempt and MSI1 is Musashi-1; names of the RNAs are library labels; protein concentration not given here; high values mean tight binding

| Binder | binding signal |
| --- | --- |
| B1 | 0.992 enrichment R |
| B2 | 0.85 enrichment R |
| B3 | 1.13 enrichment R |
| B4 | 1.59 enrichment R |
| B5 | 1.6 enrichment R |
| B6 | 1.07 enrichment R |
| B7 | 2.68 enrichment R |
| B8 | 0.813 enrichment R |
| B9 | 1.54 enrichment R |
| B10 | 0.909 enrichment R |
| B11 | 1.24 enrichment R |
| B12 | 2.32 enrichment R |
| B13 | 1.03 enrichment R |
| B14 | 1.44 enrichment R |
| B15 | 1.07 enrichment R |
| B16 | 1.01 enrichment R |
| B17 | 2.11 enrichment R |
| B18 | 0.392 enrichment R |
| B19 | 0.521 enrichment R |
| B20 | 1.45 enrichment R |
| B21 | 1.16 enrichment R |
| B22 | 0.679 enrichment R |
